Experimental data taken from PubChem BioAssay AID2675 (National Center for Advancing Translational Sciences (NCATS), 2010).
The whole screen tested about 280,000 compounds, of which about 100 (0.036%) were called active. The inconclusive results got no clear call from the source; some entries with a clear call stand among them for comparison. Calls follow the shape of the dose curve; as a rule, active = well fitted inhibition curve with a large enough effect in the signal ratio, with a control signal flat (not every such curve was filed as active); inconclusive = small, poorly fitted or top-dose-only effect, or effect the other way, or a change in a side signal; inactive = no such curve, though single readings can be large or run the other way; the % refers to the signal ratio. Potencies beside an inconclusive call are fits to weak or partial responses and may not hold up. A note “side channel” means that the fit belongs to a control or component signal, not to the main read-out.

Molecular target: Muscleblind-like protein 1 (Homo sapiens) (UniProt Q9NR56)
Assay: qHTS Assay for Inhibitors of MBNL1-poly(CUG) RNA binding
Conditions: TR-FRET MBNL1-His/biotin-(CUG)12 binding, 665/545 ratio; activity change, negative = inhibition: at 57.5 µM (top of the series)
Outline: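 Compounds (final 92 nM to 58 uM) are added to His-tagged MBNL1 and biotin-(CUG)12, then terbium anti-His antibody and streptavidin-XL665 (5 nM final). After 60 min at room temperature, the 665/545 nm ratio is read.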
% is scaled to controls: 0 for no effect and ±100 for the full control effect; potency is read from the fitted curve at half-maximal effect; tags tell the direction and shape of the fitted curve or compound fluorescence and quenching.

UniProt Q9NR56, sequence (Q9NR56 whole entry, looked up): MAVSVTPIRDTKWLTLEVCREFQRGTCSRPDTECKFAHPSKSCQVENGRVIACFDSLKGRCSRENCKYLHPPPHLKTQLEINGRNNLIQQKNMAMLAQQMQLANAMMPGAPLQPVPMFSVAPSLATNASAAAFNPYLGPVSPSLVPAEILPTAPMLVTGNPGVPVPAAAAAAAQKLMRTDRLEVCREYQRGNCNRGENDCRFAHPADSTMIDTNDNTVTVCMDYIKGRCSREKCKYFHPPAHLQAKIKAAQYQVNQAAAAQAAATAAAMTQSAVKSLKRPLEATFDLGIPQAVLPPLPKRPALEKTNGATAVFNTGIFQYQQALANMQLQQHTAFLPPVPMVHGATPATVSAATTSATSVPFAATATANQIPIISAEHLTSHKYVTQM

| SMILES | Potency | activity change, negative = inhibition |
| --- | --- | --- |
| CCOc1ccccc1N(C(=O)c1snc(C(N)=O)c1N)C(C(=O)NCCC(C)C)c1ccco1 (centres undefined) | inconclusive: 22.4 µM [quencher, side channel, partial curve] | – |
| CCc1oc(C(=O)O)cc1CN(CC)CC | – | inactive: 1.98% |
| CCOC(=O)C1CCCN(c2c(N3CCc4ccccc4C3)c(=O)c2=O)C1 (centres undefined) | inconclusive: 39.8 µM [quencher, side channel, single point] | – |
| COc1ccccc1NC1=C(N2CCCCC2)C(=O)c2ccccc2C1=O | inconclusive: 15.8 µM [quencher, side channel, partial curve] | – |
| Cc1ccccc1N=Cc1cc2c(cc1[N+](=O)[O-])OCO2 | inconclusive: 15.8 µM [quencher, partial curve] | – |
| Cc1nnc(SCc2cccc([N+](=O)[O-])c2)[nH]c1=O | inconclusive: 44.7 µM [quencher, side channel, partial curve, poor fit] | – |
| CCOC(=O)Cc1ncccc1C(=O)Nc1ccc(Oc2ccccc2)cc1 | inconclusive: 17.8 µM [quencher, side channel, partial curve] | – |
| O=C(O)CC/C(=N\NC(=O)c1ccncc1)c1ccccc1 | – | inactive: -4.2% |
| COc1ccc2sc(SCCCS(=O)(=O)O)[n+](CCCS(=O)(=O)[O-])c2c1 | inconclusive: 0.1 µM [fluorescent, side channel, full curve] | – |
| Nc1ccc2c(c1)N=[N+]([O-])c1cc(N)ccc1C2 | inconclusive: 11.2 µM [quencher, side channel, partial curve] | – |
| COc1ccc2nc(N3CCCC(C(=O)NCCCN4C(C)CCCC4C)C3)sc2c1 (centres undefined) | – | inactive: 0.899% |
| Cc1ccc2c(c1)N(C)/C(=C/c1cccc[n+]1C)S2 | inconclusive: 14.1 µM [quencher, side channel, partial curve] | – |
| Cc1ccccc1S(=O)(=O)Nc1nc2ccccc2nc1Cl | – | inactive: 26% |
| O=[N+]([O-])c1ccc(/C=C2\CCC(C3=CCCC3)=C2N2CCOCC2)cc1 | inconclusive: 28.2 µM [quencher, side channel, partial curve] | – |
| O=C(CCS(=O)(=O)c1ccc(Br)cc1)N1CCN(Cc2ccccc2)CC1 | – | inactive: -4.28% |
| N#C/C(=C(/O)c1ccc([N+](=O)[O-])cc1)c1nnc2n1CCCCC2 | inconclusive: 20 µM [quencher, side channel, partial curve] | – |
| Cc1ccc(N(C(=O)c2csnn2)C(C(=O)NC(C)(C)C)c2cccs2)cc1 (centres undefined) | – | inactive: -20.9% |
| O=C(CCCO)NNc1c2ccccc2nc2ccccc12 | inconclusive: 22.4 µM [quencher, side channel, partial curve] | – |
| O=C(NCCCNC1CCCCC1)c1ccc(/C=N/O)nc1 | – | inactive: 0.765% |
| C=CCn1c(CSc2nc3ccccc3s2)nnc1SCC(=O)NCc1cccnc1 | inconclusive: 63.1 µM [inhibitor, single point] | – |
| COc1ccccc1-n1c(N)c(C(=O)NCC2CCCO2)c2nc3ccccc3nc21 (centres undefined) | inconclusive: 0.794 µM [quencher, side channel, full curve] | – |
| CCCn1c(=O)c(C(=O)c2ccccc2)nc2ccccc21 | inconclusive: 12.6 µM [quencher, partial curve] | – |

| SMILES | Potency | activity change, negative = inhibition |
| --- | --- | --- |
| CCc1nn(CC(=O)NCCCN2CCN(CC)CC2)c(=O)c2cc3occc3n12 | – | inactive: 7.79% |
| CNC(=O)c1cc(C(=O)c2ccc(C(F)(F)F)cc2F)c[nH]1 | inconclusive: 39.8 µM [fluorescent, side channel, single point] | – |
| Cc1ncoc1C(=O)N1CCCC(C(=O)c2cccc3ccccc23)C1 (centres undefined) | – | inactive: 0.787% |
| COc1ccc(-n2nc(C(=O)NCC(=O)N3CCCCCC3)c3ccccc3c2=O)cc1Cl | inconclusive: 28.2 µM [quencher, side channel, partial curve] | – |
| O=S(=O)(Nc1ncn[nH]1)c1ccc(Cl)cc1 | – | inactive: 4.9% |
| CCOc1cc(C2C(C#N)=C(N)Oc3cc(N)ccc32)ccc1O (centres undefined) | inconclusive: 8.91 µM [quencher, side channel, full curve] | – |
| c1ccc(CCCCNCC2COc3ccccc3O2)cc1 (centres undefined) | – | inactive: 1.8% |
| C/C(Cn1cnc([N+](=O)[O-])n1)=N\NC(=O)c1cccc(F)c1 | inconclusive: 15.8 µM [quencher, side channel, partial curve] | – |
| COc1c(/C=N/NC(=O)c2ccccc2O)c(CCN(C)C(C)=O)cc2c1OCO2 | – | inconclusive: -8.65% [phenotype inactive] |
| CCOC(=O)C1=C(C)Nc2nnnn2C1c1c[nH]c2ccccc12 (centres undefined) | – | inactive: -5.12% |
| CC1=NN(c2nc3ccccc3[nH]2)C(=O)/C1=C/N(C)C | – | inactive: 5.94% |
| COCCOCCn1c(/C=C/c2ccccc2)nc2ccccc21 | inconclusive: 35.5 µM [quencher, side channel, single point] | – |
| COc1ccc(C2CC(c3cccs3)=NN2C(=O)CSc2nnnn2C)cc1OC (centres undefined) | inconclusive: 28.2 µM [quencher, side channel, single point] | – |
| Brc1ccc(C2=CC(c3cccs3)n3ncnc3N2)cc1 (centres undefined) | inconclusive: 15.8 µM [quencher, side channel, partial curve] | – |
| C=CCN(CC=C)c1nc2ccccc2nc1C(C#N)C(=O)OCCOC (centres undefined) | inconclusive: 25.1 µM [quencher, side channel, partial curve] | – |
| CN1CCN(/N=C/c2nc(-c3ccc(Cl)cc3)n3ccccc23)CC1 | inconclusive: 8.91 µM [quencher, side channel, partial curve] | – |
| Cc1ccc(OCC(=O)Nc2ccc3c(c2)CCC3)c([N+](=O)[O-])n1 | inconclusive: 12.6 µM [quencher, side channel, partial curve] | – |
| CCc1ccc(NC(=O)C(NS(=O)(=O)c2cccc3nsnc23)c2ccccc2)cc1 (centres undefined) | inconclusive: 7.94 µM [quencher, side channel, full curve] | – |
| CNc1ccc(/C=C/C(=O)c2ccc3c(c2)OCCO3)cc1[N+](=O)[O-] | inconclusive: 7.08 µM [quencher, side channel, partial curve] | – |
| CCC(=O)Nc1nc(-c2ccccc2)ns1 | inconclusive: 28.2 µM [quencher, side channel, single point] | – |
| Cc1ccc(C(=O)C2=C(O)C(=O)N(CCCn3ccnc3)C2c2ccc(OC(C)C)cc2)o1 (centres undefined) | inconclusive: 17.8 µM [fluorescent, side channel, partial curve] | – |
| CC(=O)Cc1cc2cc([N+](=O)[O-])ccc2oc1=O | inconclusive: 14.1 µM [quencher, side channel, partial curve] | – |

| SMILES | Potency | activity change, negative = inhibition |
| --- | --- | --- |
| CNC(=O)c1cc2c(s1)-c1ccccc1CC2 | inconclusive: 28.2 µM [quencher, side channel, single point] | – |
| NN1C(=O)c2cccc3c(C(=O)O)ccc(c23)C1=O | inconclusive: 3.55 µM [quencher, side channel, partial curve] | – |
| CCOc1ccccc1Nc1ccc2nonc2c1[N+](=O)[O-] | inconclusive: 2.24 µM [quencher, side channel, full curve, poor fit] | – |
| COCCNC(=O)CN1C(=O)c2cccc3cccc1c23 | inconclusive: 20 µM [quencher, side channel, partial curve] | – |
| O=C(CCNC(=O)c1ccc(Br)cc1)NCC1COc2ccccc2O1 (centres undefined) | – | inactive: -7.31% |
| Cc1ccc(NS(=O)(=O)c2ccc(-c3ccc(=O)[nH]n3)o2)cc1N(C)C | inconclusive: 10 µM [quencher, side channel, partial curve] | – |
| Cc1ccc(C(=O)N/C(=C\c2ccc(-c3ccccc3[N+](=O)[O-])o2)C(=O)NCCN(C)C)cc1 | inconclusive: 17.8 µM [quencher, side channel, partial curve] | – |
| Cc1csc(NC(=O)CSc2nc(C(C)C)nc3ccccc23)n1 | – | inactive: 5.97% |
| COc1ccccc1CNS(=O)(=O)c1cccc2nsnc12 | inconclusive: 14.1 µM [quencher, side channel, partial curve] | – |
| CCCCCCNS(=O)(=O)c1nc2nc(C)cc(C)n2n1 | inconclusive: 39.8 µM [quencher, side channel, partial curve, poor fit] | – |
| COc1ccc(C2C=C(c3cccs3)Nc3nc(CCCO)nn32)cc1 (centres undefined) | inconclusive: 28.2 µM [quencher, partial curve] | – |
| CCn1cnc2cc(NCc3cccc(OC)c3O)ccc21 | – | inactive: -12% |
| COCCNc1nnc(SC(C)C(=O)Nc2c(C)n(C)n(-c3ccccc3)c2=O)s1 (centres undefined) | – | inactive: -3.2% |
| COc1ccccc1OCc1ccc(C(=O)N2CCN3CCCC3C2)cc1 (centres undefined) | – | inactive: 6.24% |
| CCOc1ccccc1N(C)S(=O)(=O)c1ccc2c(c1)CCN2C(=O)CCC(=O)O | – | inactive: -6.7% |
| CCC1CCCCN1C(=O)Nc1cc(Cl)ccc1OC (centres undefined) | – | inactive: -2.93% |
| COc1ccc(C(=O)Nn2cnc3ccccc3c2=O)cc1[N+](=O)[O-] | inconclusive: 39.8 µM [quencher, side channel, single point] | – |
| CCOc1ccc(CCN2C(=O)c3ccc(C(=O)O)cc3C2=O)cc1OCC | inconclusive: 12.6 µM [quencher, side channel, partial curve] | – |
| O=C(CS(=O)c1ccc(C(F)(F)F)cc1[N+](=O)[O-])Oc1ccccc1 (centres undefined) | inconclusive: 14.1 µM [quencher, side channel, partial curve] | – |
| O=C(N/N=C\C=C\c1ccco1)c1cncc(Br)c1 | inconclusive: 15.8 µM [quencher, side channel, partial curve] | – |
